Laboratory results as given in the supplement of paper PMC8728848.
Some of the results follow.

Legend:
Assay in all cases: glycan array binding signal (z-score within array); higher = stronger binding
Details in all cases: glycan notation: IUPAC condensed, linker removed
[1] = target: Neu5Ac(a2-8)Neu5Ac
Summary of the method: (§1)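 Negative Z-scores can be read as non-binding. The Z-score is calculated within each array and then averaged across arrays of one protein sequence at different concentrations or buffers and across linkers. Arrays, 3228 in all, were curated from the Consortium for Functional Glycomics database and kept only where the protein sequence was available.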

[2] = target: Neu5Ac(a2-8)Neu5Ac(a2-3)Gal(b1-3)GalNAc(b1-4)[Neu5Ac(a2-3)]Gal(b1-4)Glc
Summary of the method: as §1

[3] = target: Neu5Ac(a2-8)Neu5Ac(a2-3)Gal(b1-3)GalNAc(b1-4)[Neu5Ac(a2-8)Neu5Ac(a2-3)]Gal(b1-4)Glc
Summary of the method: as §1

[4] = target: Neu5Ac(a2-8)Neu5Ac(a2-3)Gal(b1-4)Glc
Summary of the method: as §1

[5] = target: Neu5Ac(a2-8)Neu5Ac(a2-3)Gal(b1-4)GlcNAc
Summary of the method: as §1

[6] = target: Neu5Ac(a2-8)Neu5Ac(a2-3)[Gal(b1-3)GalNAc(b1-4)]Gal(b1-4)Glc
Summary of the method: as §1

[7] = target: Neu5Ac(a2-8)Neu5Ac(a2-3)[GalNAc(b1-4)]Gal(b1-4)Glc
Summary of the method: as §1

[8] = target: Neu5Ac(a2-8)Neu5Ac(a2-8)Neu5Ac
Summary of the method: as §1

[9] = target: Neu5Ac(a2-8)Neu5Ac(a2-8)Neu5Ac(a2-3)Gal(b1-4)Glc
Summary of the method: as §1

[10] = target: Neu5Ac(a2-8)Neu5Ac(a2-8)Neu5Ac(a2-3)[Gal(b1-3)GalNAc(b1-4)]Gal(b1-4)Glc
Summary of the method: as §1

[11] = target: Neu5Ac(a2-8)Neu5Ac(a2-8)Neu5Ac(a2-3)[GalNAc(b1-4)]Gal(b1-4)Glc
Summary of the method: as §1

[12] = target: Neu5Ac(a2-8)Neu5Ac(a2-8)Neu5Ac(a2-8)Neu5Ac(a2-3)[GalNAc(b1-4)]Gal(b1-4)Glc
Summary of the method: as §1

[13] = target: Neu5Ac(a2-8)Neu5Gc(a2-3)Gal(b1-4)GlcNAc
Summary of the method: as §1

[14] = target: Neu5Ac(b2-6)Gal(b1-4)GlcNAc
Summary of the method: as §1

[15] = target: Neu5Ac(b2-6)GalNAc
Summary of the method: as §1

[16] = target: Neu5Ac9Ac(a2-3)Gal(b1-3)GlcNAc
Summary of the method: as §1

[17] = target: Neu5Ac9Ac(a2-3)Gal(b1-4)GlcNAc
Summary of the method: as §1

[18] = target: Neu5Ac9Ac(a2-6)Gal(b1-4)GlcNAc
Summary of the method: as §1

[19] = target: Neu5Gc(a2-3)Gal(b1-3)GlcNAc
Summary of the method: as §1

[20] = target: Neu5Gc(a2-3)Gal(b1-3)[Fuc(a1-4)]GlcNAc
Summary of the method: as §1

[21] = target: Neu5Gc(a2-3)Gal(b1-4)Glc
Summary of the method: as §1

[22] = target: Neu5Gc(a2-3)Gal(b1-4)GlcNAc
Summary of the method: as §1

[23] = target: Neu5Gc(a2-3)Gal(b1-4)GlcNAc(b1-3)Gal(b1-4)GlcNAc(b1-2)Man(a1-3)[Neu5Gc(a2-3)Gal(b1-4)GlcNAc(b1-3)Gal(b1-4)GlcNAc(b1-2)Man(a1-6)]Man(b1-4)GlcNAc(b1-4)GlcNAc
Summary of the method: as §1

[24] = target: Neu5Gc(a2-3)Gal(b1-4)[Fuc(a1-3)]GlcNAc
Summary of the method: as §1

[25] = target: Neu5Gc(a2-6)Gal(b1-4)GlcNAc
Summary of the method: as §1

[26] = target: Neu5Gc(a2-6)GalNAc
Summary of the method: as §1

[27] = target: Neu5Gc(a2-8)Neu5Ac(a2-3)Gal(b1-4)GlcNAc
Summary of the method: as §1

[28] = target: Neu5Gc(a2-8)Neu5Gc(a2-3)Gal(b1-4)GlcNAc
Summary of the method: as §1

[29] = target: Neu5Gc(a2-8)Neu5Gc(a2-3)Gal(b1-4)GlcNAc(b1-3)Gal(b1-4)GlcNAc
Summary of the method: as §1

[30] = target: Neu5Gc(a2-8)Neu5Gc(a2-6)Gal(b1-4)GlcNAc
Summary of the method: as §1

[31] = target: Neu5Gc(b2-6)Gal(b1-4)GlcNAc
Summary of the method: as §1

B1: LecRKVI.2 (protein)
chain: RTTTNFAFRGFNGNQSKIRIEGAAMIKPDGLLRLTDRKSNVTGTAFYHKPVRLLNRNSTNVTIRSFSTSFVFVIIPSSSSNKGFGFTFTLSPTPYRLNAGSAQYLGVFNKENNGDPRNHVFAVEFDTVQGSRDDNTDRIGNDIGLNYNSRTSDLQEPVVYYNNDDHNKKEDFQLESGNPIQALLEYDGATQMLNVTVYPARLGFKPTKPLISQHVPKLLEIVQEEMYVGFTASTGKGQSSAHYVMGWSFSSGGERPIADVLILSELPPPPPNKAKKEGLNS
**Q.** What does the source list for B1?
**A.** glycan array binding signal (z-score) [1]: -0.272; glycan array binding signal (z-score) [2]: -0.35; glycan array binding signal (z-score) [3]: -0.34; glycan array binding signal (z-score) [4]: -0.443; glycan array binding signal (z-score) [5]: -0.452; glycan array binding signal (z-score) [6]: -0.145; glycan array binding signal (z-score) [7]: 0.917; glycan array binding signal (z-score) [8]: -0.317; glycan array binding signal (z-score) [9]: -0.322; glycan array binding signal (z-score) [10]: -0.237; glycan array binding signal (z-score) [11]: -0.018; glycan array binding signal (z-score) [12]: 0.069; glycan array binding signal (z-score) [13]: -0.403; glycan array binding signal (z-score) [14]: -0.393; glycan array binding signal (z-score) [15]: -0.367; glycan array binding signal (z-score) [16]: 0.013; glycan array binding signal (z-score) [17]: -0.222; glycan array binding signal (z-score) [18]: -0.349; glycan array binding signal (z-score) [19]: -0.31; glycan array binding signal (z-score) [20]: -0.432; glycan array binding signal (z-score) [21]: 1.38; glycan array binding signal (z-score) [22]: -0.244; glycan array binding signal (z-score) [23]: -0.378; glycan array binding signal (z-score) [24]: -0.355; glycan array binding signal (z-score) [25]: -0.356; glycan array binding signal (z-score) [26]: -0.305; glycan array binding signal (z-score) [27]: -0.415; glycan array binding signal (z-score) [28]: -0.395; glycan array binding signal (z-score) [29]: -0.436; glycan array binding signal (z-score) [30]: -0.407; glycan array binding signal (z-score) [31]: -0.309
